Whole data set: some 110,000 compounds, median “z-score” near -0.1, cut for the highest 2% near 2. This is one part of the list. Active and inactive are the calls of the source.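 How the source made its calls: active means z-score in the third read window above 3 or below -3; inactive means the rest.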

This experiment deals with Metabotropic glutamate receptor 8 (Rattus norvegicus) (UniProt P70579). The experiment is described as follows: mGluR8 Gi/Go-coupled signaling modulation – cell-based, rat, thallium flux, HTS, primary screen (AID 488969). Conditions: HEK293 rat mGluR8, GIRK (G protein-gated inwardly rectifying potassium channel) thallium flux, FluoZin2; at 10 µM; stronger effect = higher value; submaximal glutamate (EC20) added with thallium.
UniProt P70579, sequence (P70579 whole entry, looked up): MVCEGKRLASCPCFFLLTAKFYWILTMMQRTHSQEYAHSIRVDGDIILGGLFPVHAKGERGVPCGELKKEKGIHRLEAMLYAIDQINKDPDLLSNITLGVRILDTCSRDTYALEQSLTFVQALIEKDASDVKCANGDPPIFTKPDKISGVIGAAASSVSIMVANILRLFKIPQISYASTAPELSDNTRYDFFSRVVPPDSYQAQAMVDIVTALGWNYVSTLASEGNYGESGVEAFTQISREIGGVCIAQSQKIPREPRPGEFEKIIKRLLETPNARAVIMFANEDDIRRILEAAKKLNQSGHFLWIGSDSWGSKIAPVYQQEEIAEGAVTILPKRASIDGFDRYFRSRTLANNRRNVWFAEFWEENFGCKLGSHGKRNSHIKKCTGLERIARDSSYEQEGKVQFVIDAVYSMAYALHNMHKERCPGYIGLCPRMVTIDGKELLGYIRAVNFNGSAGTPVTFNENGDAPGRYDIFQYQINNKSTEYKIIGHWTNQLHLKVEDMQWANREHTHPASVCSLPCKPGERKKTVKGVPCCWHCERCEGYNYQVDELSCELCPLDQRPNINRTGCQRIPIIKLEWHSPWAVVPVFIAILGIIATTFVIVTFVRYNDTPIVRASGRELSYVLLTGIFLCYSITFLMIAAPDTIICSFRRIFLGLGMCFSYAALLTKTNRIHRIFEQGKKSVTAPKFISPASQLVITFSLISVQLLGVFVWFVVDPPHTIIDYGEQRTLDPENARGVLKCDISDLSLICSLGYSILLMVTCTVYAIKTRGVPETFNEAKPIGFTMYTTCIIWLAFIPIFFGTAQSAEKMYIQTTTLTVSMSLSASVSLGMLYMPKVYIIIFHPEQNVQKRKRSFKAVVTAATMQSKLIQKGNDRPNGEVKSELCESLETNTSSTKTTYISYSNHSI
Consider `Clc1ccc(CCNc2nc3ccccc3s2)cc1`, for which the z-score is -0.282.
Under `COc1cc(C(=S)N2CCCC2)cc(Cl)c1O` stands 2.62; under `Cc1c(NC(=S)/C=C2\N(C)c3ccccc3C2(C)C)c(=O)n(-c2ccccc2)n1C`, -0.43.
Take `CCCSc1nc(C)c(C(C)=O)cc1C#N`: the z-score was -0.196.
Under `O=C(NCc1ccco1)c1nc2c(nnn2Cc2ccccc2Cl)c(=O)[nH]1` stands -1.14; under `CC1CCN(S(=O)(=O)c2ccc(C(=O)NCc3ccc4c(c3)OCO4)cc2)CC1`, -0.39; under `CN(C)c1ccc(Nc2c3c4c(cccc4n(C)c2=O)C(=O)c2ccccc2-3)cc1`, 0.123.
Under `O=C(OCc1nnc(-c2ccc(Cl)cc2)o1)c1ccncc1` stands -0.619; under `CC(C)(C)n1ncc2c(=O)n(CC(=O)Nc3ccc4c(c3)OCO4)cnc21`, 0.52.
Regarding `O=C(O)c1cccc(S(=O)(=O)N2Cc3ccccc3C2)c1`, the z-score was -0.202.
Compound `Cc1ccccc1NC(=O)Nc1ccccc1Br` came in with a z-score of -0.375.
As for `COCCCNC(=O)C(F)(F)C(F)(F)C(=O)NCCCOC`, the z-score was -0.233.
Under `CCOC(=O)c1c(NC(=O)Cn2nc(C(F)(F)F)cc2C)sc2c1CCC2` stands -0.122; under `CCOC(=O)C(C)Oc1ccc2c(C)cc(=O)oc2c1C(C)=O` (stereo unspecified), -0.319; under `COc1ccc(S(=O)(=O)NCCSC(C)(C)C)cc1Cl`, 0.154.
Under `Cc1ccc(N(C(=O)C(F)(F)F)C(C(=O)NC2CCCCC2)c2cccs2)cc1C` (stereo unspecified) stands -2.35; under `O=C(Cc1ccc(Br)cc1)N1CCN(c2ccccc2)CC1`, -0.169.
Under `c1ccc(-c2csc(N3CCc4ccccc4C3)n2)cc1` stands 0.2; under `Oc1ccc(N=Nc2c(O)ccc3ccccc23)cc1`, -0.0552; under `CCOC(=O)C(C)(C)N(Cc1ccc(C)cc1)S(=O)(=O)c1ccc(Cl)c([N+](=O)[O-])c1`, -0.285.
Turning to `COC(=O)C(C)Sc1nc2c(c(-c3ccc(OC)cc3)c1C#N)-c1ccccc1C2=O` (stereo unspecified), the z-score is -0.206.
Under `COc1cccc(/C=N/n2c(=S)n(C)c3cc(C)c(C)cc32)c1OC` stands 0.276; under `CC(C)(C)C(=O)Nc1nc(=S)ss1`, 1.95.
Under `O=C(C1CCC1)N1CCc2cc(S(=O)(=O)Nc3ccc4c(c3)OCCO4)ccc21` stands -0.0481.
For `COC(=O)C(CC(C(=O)OC)C(=O)OC)C(=O)OC` the value was -0.382.
Consider `CCOC(=O)C1CCN(C(=O)COc2ccc(N(C)S(=O)(=O)c3cccs3)cc2)CC1`, for which the z-score is -1.31.
Compound `CCOc1ccc(OCC)c(NC(=O)C2CCN(S(=O)(=O)c3cnc[nH]3)CC2)c1` registered a z-score of -1.07.
Under `CN1CCn2c1nc(N1CCCCC1)nc2=O` stands 0.365; under `Cc1nn(-c2ccccc2)c(-c2ccccc2)c1C(=O)O`, -0.044; under `CCC(C)(C)n1nnnc1C(c1cc2cc(C)ccc2[nH]c1=O)N1CCCc2ccccc21` (stereo unspecified), -0.094.
For the compound `Cc1ccc(Oc2ccccc2/C=N/O)cc1`, the z-score was -0.167.
For `O=C(NC1CCCCC1)N(CCO)Cc1cc2cc3c(cc2[nH]c1=O)OCCO3` the value was -0.338.
For `Cc1ccc(C(c2nnnn2CS(=O)(=O)c2ccc(C)cc2)N2CCC(C)CC2)cc1` (stereo unspecified), the z-score was -0.869.
As to `CCOC(=O)Cc1csc(SC(C)C(=O)Nc2ccc(NC(C)=O)cc2)n1` (stereo unspecified), the z-score was -0.132.
Under `CCC(CC)C(=O)N(c1ccc(F)cc1)C1C=CS(=O)(=O)C1` (stereo unspecified) stands 0.277.
Under `Cc1nc(NC(=O)c2ccc([N+](=O)[O-])cc2Cl)sc1C(=O)N(C)C` stands -0.0927.
Under `Clc1ccc(-c2nnc(C34CC5CC(CC(C5)C3)C4)o2)cn1` stands -0.0891; under `CCOC(=O)c1ccccc1NC(=O)c1ccc2c(=O)n3c(nc2c1)CCCCC3`, -1.75.
`COc1nc(C)ccc1-c1noc(-c2ccccn2)n1` displayed a z-score of 0.308.
For `COc1ccc(N2C(=O)CC2(/C=C/c2ccccc2OC)C(=O)NC2CCCC2)cc1` (stereo unspecified) the value was -0.0628; for `CCCNC(=O)C(=O)Nc1ccc(N(C)C)cc1`, -0.0526.
For `Cc1ccc(-n2nnnc2SCC(=O)N2CCN(C(=O)c3ccco3)CC2)c(C)c1` the value was -0.886; for `COc1cccc(NC2=NCC(=O)N2Cc2cccs2)c1`, 0.854; for `O=C(CSc1nccc2ccccc12)N1CCN(c2ccccn2)CC1`, -1.6.
Under `Cc1cccc(N2CC(C(=O)Nc3nnc(SCC(=O)Nc4cc(C)on4)s3)CC2=O)c1` (stereo unspecified) stands -0.258.
The compound `C(=N\c1nccs1)/c1c[nH]c2ccccc12` displayed a z-score of -0.861.
For `CCCCC1CCC(C(=O)NC2CCS(=O)(=O)C2)CC1` (stereo unspecified) the value was 0.0229.
For `COc1ccc2nc(NCCO)[nH]c2c1` the value was -0.322; for `CCN(CC)CCN(Cc1cc2cc(C)ccc2[nH]c1=O)C(=S)NCc1ccco1`, 0.381; for `COc1ccc(CCC(=O)NCc2ccco2)cc1`, -0.337.
Under `CC1Cc2ccccc2N1C(=O)COc1cccc(-n2cnnn2)c1` (stereo unspecified) stands -0.404; under `O=S1(=O)CCC(SCc2nc3sccn3c2Br)C1` (stereo unspecified), -0.55; under `COC(=O)c1cccc(NC(=O)C(C)N2C(=O)c3ccccc3C2=O)c1` (stereo unspecified), 0.0709.
With `CCOc1[nH]c(/N=C/c2ccco2)c(C#N)c1C#N`, the z-score was -0.212.
Under `CC1CCCN(CCOCCOc2ccc(Br)cc2Cl)C1` (stereo unspecified) stands 0.0933.
For `C=C1C2(C(=O)NCc3ccco3)CCC(C2)C1(C)C` (stereo unspecified) the value was -0.0997.
In turn, `COc1ccc(C(=O)c2ccccc2)c2c(O)ccc(C(=O)c3ccccc3)c12` yielded a z-score of -0.153.
Under `O=c1[nH]c2ccccc2nc1N1CCOCC1` stands 0.306; under `Cc1ccc(S(=O)(=O)Cc2ccc(C(=O)N3CCc4ccccc4C3)o2)cc1`, -0.31.
The compound `CCCCOc1ccc(C(=O)Nc2ccc(N3CCN(C(=O)C(C)C)CC3)cc2)cc1` returned a z-score of 0.167.
Under `O=C(Cc1cc(=O)[nH][nH]1)N/N=C/c1cccc(Cl)c1Cl` stands -0.524; under `CC(=O)Nc1ccc(NC(=O)c2ccccc2CC[N+](=O)[O-])cc1`, 0.119; under `Cc1onc(-c2ccccc2)c1C(=O)N1CCCN(C(=O)c2c(-c3ccccc3)noc2C)CC1`, -0.0397.
Under `Cc1cc(C)nc(NC(=O)c2c(-c3c(Cl)cccc3Cl)noc2C)n1` stands -1.14.
For `Fc1cccc(C2NN=C(c3ccccc3)S2)c1` (stereo unspecified) the value was active: 6.37.
Turning to `CC(OC(=O)c1cccc(NS(C)(=O)=O)c1)C(=O)Nc1ccc(N2CCOCC2)cc1` (stereo unspecified), the z-score was -0.447.
For `CCOc1ccccc1NC(=O)Cn1c(=O)n(-c2ccccc2)c(=O)c2oc3ccccc3c21` the value was -0.369; for `CCn1c2ccccc2c2cc(/C=N/n3cnnc3)ccc21`, -1.04.
For the compound `CCCn1c(=O)[nH]c(=O)c2c1nc(-c1ccccc1OC(F)F)n2CCOC`, the z-score is -0.729.
For `CCOC(=O)c1ccc([N+](=O)[O-])cc1NC(C)=O` the value was 0.368; for `COc1ccc(-n2c(N)c(-c3nc4ccccc4n3C)sc2=S)cc1`, 0.161; for `CC1CC(C)CN(CCC(=O)Nc2cccc(Cl)c2)C1` (stereo unspecified), 1.2.
For `Cc1nc(C)c(C(=O)OCC(=O)N2CCN(c3ccccc3)CC2)s1` the value was -0.392; for `O=C(Nc1ccc(OC(=O)c2ccccc2)c(-c2nc3ccccc3s2)c1)c1ccccc1`, -0.0491; for `O=C(NCCOC(=O)c1ccccc1C(=O)OCCNC(=O)c1cccnc1)c1cccnc1`, -0.243.
For `CCCN1C2CCCC1CC(NC(=O)c1ccc(F)cc1)C2` (stereo unspecified) the value was -0.212.
For the compound `O=S(=O)(NC1CCCCC1)c1cccc(-c2nnc(-c3ccccc3)o2)c1`, the z-score turned out to be 0.624.
`CCN(CC)S(=O)(=O)c1cccc(-c2nnc(SCC(N)=O)n2CCc2ccccc2)c1` displayed a z-score of -0.616.
For `O=S(=O)(Cc1ccccc1)N1CCN(c2ccccc2)CC1` the value was -0.475.
Compound `CN(C)C(=O)CNC(=O)C1CCCCC1` displayed a z-score of -0.0723.
For `COC(=O)CSc1nnc(C)n1-c1cccc(OC)c1` the value was -0.108; for `CCC(=O)NCCc1nc2ccccc2n1Cc1ccc(C)cc1`, -0.19.
For `Cc1c(C(=O)Nc2ccc(F)cc2)oc2ccc(S(=O)(=O)N3CC(C)CC(C)C3)cc12` (stereo unspecified) the value was -0.0391.
Consider `COc1cc(-c2nnc(SCC3(c4ccccc4)OCCO3)o2)cc(OC)c1OC`, for which the z-score is -0.69.
Under `CCCCNC(=O)CN1C(=O)NC2(CCCc3ccccc32)C1=O` (stereo unspecified) stands 0.378; under `Cc1ccc(N(C(=O)c2ccccc2Cl)C2=NC(C)CS2)c(C)c1` (stereo unspecified), -0.0432.
Under `COc1cc(/C=C2/OC(=O)c3cc([N+](=O)[O-])ccc32)cc(OC)c1OC` stands -0.0655.
`CCN(CC)C(=O)C12CC3CC(CC(Cl)(C3)C1)C2`: the z-score is -0.00405.
Compound `Cc1ccnc(N2CCC(C(=O)NNC(=O)c3ccccc3C)CC2)n1` showed a z-score of -0.203.
For `O=C(NC1CCCCC1)C12CC3CC(CC(Cl)(C3)C1)C2` the value was -0.21.
`O=C(Nc1nc2ccc(S(=O)(=O)N3CCCC3)cc2s1)C1CCCO1` (stereo unspecified) displayed a z-score of 0.149.
Turning to `CCCCCCCC1CC(CSC(=N)N)OC1=O` (stereo unspecified), the z-score is active: 5.96.
Under `Cc1cc(C)nc(NC(=O)/C=C/c2cccs2)c1` stands -0.267; under `COc1cccc(C(=O)Nc2ccc(-c3nc4ccccc4o3)c(O)c2)c1`, -0.353.
Under `COCCn1nnnc1C(c1ccccc1OC)N1CCc2ccccc2C1` (stereo unspecified) stands -0.308; under `Cc1cc(NC(=O)COC(=O)[C@H](C)NC(=O)c2ccccc2)no1`, -0.202.
For `COc1cccc(-c2nc(NC(C)C)c3ccccc3n2)c1O` the value was -0.382.
With `COc1ccc(C(=O)NC(=O)N2CCCCC2)cc1`, the z-score was found to be 0.975.
Under `C/C(=C\C(=O)c1ccc(Br)cc1)NCc1ccccc1` stands -0.0992; under `COc1ccc(C(C(=O)NC2CCCCC2)N(C(=O)CCCC(=O)Nc2ccccn2)c2ccc3c(c2)OCCO3)cc1` (stereo unspecified), 0.117; under `O=S(=O)(c1cccc(-c2csc(-c3cccnc3)n2)c1)N1CCCCC1`, 0.409.
Under `Cc1ccc(S(=O)(=O)N2CCOCC2)cc1NC(=O)COC(=O)Cc1ccsc1` stands 0.269.
Under `c1ccc(C2CNCc3c2ccc2ccccc32)cc1` (stereo unspecified) stands 0.462.
For the compound `O=C(NCc1ccco1)NC12CC3CC(CC(C3)C1)C2`, the z-score was -0.073.
Under `CC(C)NC(=O)c1cnc(N2CCN(c3ccccn3)CC2)c2ccccc12` stands -0.555; under `COc1cccc(C2C(C#N)=C(N)Oc3cc(C)n(Cc4ccco4)c(=O)c32)c1` (stereo unspecified), 0.0055; under `CCN1CCN(Cc2nc3c(c(=O)n(C)c(=O)n3C)n2CC(=O)c2ccccc2)CC1`, -0.316.
For `N#CC1=C(N)Oc2cc3ccccc3cc2C1c1cccs1` (stereo unspecified) the value was -0.0711.
Under `O=C(N/N=C/c1cc(Br)ccc1O)C(c1ccncc1)N1CCOCC1` (stereo unspecified) stands -0.0773; under `Cc1ccc(C)c(C(=O)CSc2n[nH]c(C(C)C)n2)c1`, -0.054; under `COCCN(C(=O)CCl)C(C(=O)NC1CCCCC1)c1ccccc1C` (stereo unspecified), 0.299.

Source of the values: PubChem BioAssay AID488969 (Vanderbilt High Throughput Screening Facility, 2010).
